Over roughly 33,000 sequences, “E-score (-0.5 to 0.5)” has its median near -0.04; the highest 2% begin near 0.36. The list shows a part of the results.
These sequences were tested against T1, Hmlalpha2 (UniProt P0CY09) (assay: PBM E-score (8-mer binding enrichment) (E-score (-0.5 to 0.5)); higher = stronger / more preferred TF binding; most listed sequences are background and not binding sites). Details: protein concentration: 200 nM; construct: GST-full length.
T1 sequence: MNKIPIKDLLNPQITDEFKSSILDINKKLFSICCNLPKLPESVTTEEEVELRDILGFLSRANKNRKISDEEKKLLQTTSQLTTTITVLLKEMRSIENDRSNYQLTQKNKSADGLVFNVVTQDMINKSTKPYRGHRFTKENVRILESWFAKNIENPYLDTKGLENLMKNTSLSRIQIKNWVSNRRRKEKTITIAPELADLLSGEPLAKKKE
How it was run: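 The E-score, a modified Wilcoxon-Mann-Whitney statistic, was computed by the Universal PBM Analysis Suite for every ungapped eight-base word pooled with its reverse complement. Scans behind it were normalised with masliner after bound GST-tagged yeast transcription factors were detected with fluorescent anti-GST. The proteins, at about 100-200 nM, had been applied to universal all-10-mer Agilent arrays made double-stranded by primer extension.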

Sequence	PBM E-score
ATACAGAT	0.0712
ACTAGTCA	-0.072
CTCGCATA	0.0176
AAGGGTTG	0.0478
AAACTGTC	-0.09
CGTACGAA	0.111
ATCCCCTC	-0.115
AACTGCCT	-0.0242
CTTGTTAA	0.414
CCTGCTTA	0.0578
GAAGAAGA	0.0898
GAGATGTA	0.307
CTGCTGTA	-0.00269
AAACTGCT	-0.184
CGGGGTGC	-0.272
CTACGGTA	-0.079
AAGCTCCG	-0.13
AGCGAAGA	-0.249
CCCGTTAC	-0.0221
TCGTCAAA	0.0285
AAACACAG	0.318
AAACTGAC	-0.0645
GATTTTCC	-0.115
ATGGCGAC	-0.141
GTACTGTA	0.0819

Sequence	PBM E-score
TCGGTCCA	-0.138
ACTAATAG	0.0561
ACGAACTA	0.107
CTCTTCAA	-0.15
AACCCACC	-0.119
CACTCAGG	0.0519
AACATAAG	0.391
AGCAGCTA	0.0354
GACACCGA	-0.0549
CCAATCGA	-0.143
GATACTTA	-0.00631
ATCTACTA	0.193
AGTCTCAG	-0.152
ATGTTAAC	0.448
AAGCCATG	0.09
ACTGTTTA	0.227
ATCTCGCG	0.0474
GAGCACAC	-0.11
GTTGCATA	0.0217
CTTCCAAG	-0.152
CGAATCTA	0.066
GATCCCCA	-0.19
CCCTGTTC	-0.147
TGGCAGAA	-0.0306
CAACTGGG	-0.285

Sequence	PBM E-score
CACGCTAA	0.0185
CGCCCGCA	-0.195
GGAAGTCA	-0.328
AGCATGCC	-0.116
AGTGCCTG	-0.287
AAACGAGA	0.00331
GGGGTCAA	-0.0247
AATGCTTA	0.0111
ACCCATAA	-0.141
AGGCATGG	-0.093
GCTGCCCC	-0.237
CAGTTAAC	0.174
GCCCCCTA	-0.299
AGATCGAG	-0.0726
ATTTTCCG	-0.0414
CGTAAATA	0.352
AATCTTGA	0.024
ATTCGTTA	0.0794
AATGCATG	0.208
CGGACTGC	0.0298
ATTGAGCG	-0.0413
GGTTTCAA	-0.0868
GCCCGGTA	-0.191
GTCGATCA	0.111
ACTTTCTC	-0.00994

Sequence	PBM E-score
AATAGAAC	0.0852
CCGCGCCA	-0.237
CAGTTGAC	0.00858
GCGTTGAA	0.279
AGCGCCCG	-0.132
ACACCGTC	-0.0839
CTTGGGAA	-0.0083
CACGGCCC	-0.0363
CTAGTAGA	0.0904
GTCAGGAC	-0.232
AACTAGAA	0.134
CCTAACCC	-0.292
ACGATGCT	-0.101
ATTTTCGA	0.136
GATGTCCC	-0.368
GTGGTCTA	-0.296
GCCTTAGC	-0.0811
AAACTCCC	-0.157
AAGATTAG	0.0689
GCAGGCCC	-0.215
CTTCAACC	0.0272
CCCATTCC	-0.361
ATATGGAC	0.0265
ACCCAACG	-0.0162
GGGAGTAC	-0.0344

Sequence	PBM E-score
ATCCATAC	-0.0413
ATGAAATA	0.16
GGGTAGAA	0.138
GCCCTGAA	0.0216
TGAACTCA	0.0602
CCTAAAGC	-0.287
AATCGCTA	-0.0187
CAACGTCA	0.00153
TCCAAAAA	-0.0755
GAGACCGA	0.00577
AGCCTGCC	-0.0873
AACGAACA	0.277
GGCGCCGA	-0.0244
AAGACTTC	-0.057
CCGATACG	-0.211
ACTCCTGG	-0.113
CCGTCAGG	-0.148
GTAATGGA	0.339
GACCATGC	-0.00429
TTAATAAA	0.271
TGACTCCA	-0.208
CGTTGCCC	-0.283
GAATTGGA	-0.0175
CCCCTAAG	-0.317
CACGTAGC	-0.0687

Sequence	PBM E-score
CATGAACC	0.0312
ATACAAAC	0.27
GTACTTAA	0.171
ATAGGCCG	0.0251
CACAGGTC	-0.101
CTAGGAGA	-0.0596
CACGTTCG	0.0113
AACCGCGT	0.296
CGCGTGGA	-0.118
GTTAGGGA	-0.123
CGTGGCAG	-0.0613
ATAGTGGG	-0.113
ACCACGCG	0.0409
ATGACGAC	-0.105
GTCAACCA	0.114
ACTAAACA	0.196
CGTTTATC	-0.02
ATCATCCC	-0.164
AACCAACA	0.235
CGTCATTA	0.0735
ACCCCCTG	-0.214
AGGTGAGC	-0.0355
GCCTGACC	-0.287
AGTGGTGC	-0.216
ACTCACGG	-0.0391

Sequence	PBM E-score
CAGTAAGA	0.0324
ACCGTGGA	-0.174
CCGACGAA	0.0889
CCTGGCTC	-0.175
ACGTCTAG	0.0729
GCCTAGGC	-0.238
AGTGACCG	-0.283
ACGAGGAT	-0.0455
AGTTCCGC	-0.147
AGCGTCCT	-0.069
CTCCTTAC	0.0461
GTTTTTCA	0.144
ACATTAAC	0.274
GCGGGCCC	-0.332
ATTCCCAA	-0.0247
CCCTCTTC	-0.323
ACTGCTCA	0.0532
AGATTCCG	-0.0795
GGTCCTTA	-0.191
ATGGGATA	-0.0868
ATCGCATA	0.117
GAAAACCA	-0.147
